# Reference: article PMC6292214 (2018)
# Target: CENP-A nucleosome (Homo sapiens, UniProt P49450)
row,Kd,Binder
1,42 nM,"MBP-tagged hCENP-N[…] […] (protein, His8-MBP tag on CENP-N; CENP-A in nucleosome with H4, H2A, H2B and DNA) not shown"
2,46 nM,"hCENP-N[…] (untagged) […] (protein, CENP-A in nucleosome with H4, H2A, H2B and DNA) not shown"
